Reference: PubChem BioAssay AID1159614 (National Center for Advancing Translational Sciences (NCATS), 2016)
The campaign covered roughly 45,000 compounds. About 65 (0.1%) were called active. The call rests on the fitted dose curve; in most records, active means well fitted activation curve with a large enough effect; inconclusive means small, poorly fitted or top-dose-only effect; inactive means no such curve, though single readings can be large or run the other way. The list shows a part of the results.

These compounds were tested against Galactocerebrosidase (Homo sapiens) (UniProt P54803) (assay: A Novel Cell-Based Assay to Identify Small Molecules for B -Galactocerebrosidase). Conditions: 145M-Twi-hGALC-G270D cells (Twitcher mouse brain line with human GALC G270D), HMU-beta-Gal fluorescence, 48 h; series mostly up to 57.5 µM; activation: at the top concentration.
Summary of the method: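 Fluorogenic HMU-b-Gal hydrolysis (0.1 mM final, pH 5.2 citrate-phosphate with 1 mg/mL sodium taurocholate; carbonate stop buffer) measures mutant GALC activity after compound treatment of live 145M-Twi Twitcher brain cells stably carrying human GALC-G270D, with wild-type GALC line alongside; activation sought.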
Further: 0% is about no effect; nearly all actives have a fitted effect of over 65% in size.

Sequence of UniProt P54803 (P54803 whole entry, looked up): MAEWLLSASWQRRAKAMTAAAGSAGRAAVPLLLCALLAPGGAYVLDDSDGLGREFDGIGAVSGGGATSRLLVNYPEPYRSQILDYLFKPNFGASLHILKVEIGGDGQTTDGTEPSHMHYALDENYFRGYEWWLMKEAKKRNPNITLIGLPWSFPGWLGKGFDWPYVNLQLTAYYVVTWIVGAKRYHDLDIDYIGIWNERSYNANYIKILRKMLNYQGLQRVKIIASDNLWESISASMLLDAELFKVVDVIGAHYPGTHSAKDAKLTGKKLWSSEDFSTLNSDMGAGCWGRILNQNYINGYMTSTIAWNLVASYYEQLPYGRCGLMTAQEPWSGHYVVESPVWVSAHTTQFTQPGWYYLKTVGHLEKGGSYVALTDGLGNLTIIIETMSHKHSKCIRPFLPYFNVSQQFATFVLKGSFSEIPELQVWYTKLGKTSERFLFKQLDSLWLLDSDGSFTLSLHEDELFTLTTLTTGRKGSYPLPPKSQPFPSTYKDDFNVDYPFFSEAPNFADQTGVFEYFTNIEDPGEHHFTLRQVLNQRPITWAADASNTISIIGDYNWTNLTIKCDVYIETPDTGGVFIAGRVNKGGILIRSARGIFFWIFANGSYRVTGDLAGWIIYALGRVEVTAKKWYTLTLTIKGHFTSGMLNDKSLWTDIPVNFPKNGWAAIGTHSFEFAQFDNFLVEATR

activation, inactive:
Clc1ccc(-c2noc3ncnc(NCCc4ccccc4)c23)cc1 -14.2%
O=C1OC(OC(=O)c2cccnc2Nc2cccc(C(F)(F)F)c2)c2ccccc21 (centres undefined) -27%
Cc1cc(C)cc(NS(=O)(=O)c2cc3c(cc2C)NC(=O)CO3)c1 -5.13%
COc1cc(OC)c(Nc2nc3ccc(C(=O)c4ccccc4)cc3n3c(C)nnc23)cc1Cl -12.9%
O=C(Nc1ccc(OC(F)(F)F)cc1)c1cc2ccccn2n1 -15.7%
O=c1nc2n(-c3ccccc3F)c3ccccc3cc-2c(=O)[nH]1 -22.1%
CCCCn1cc2c(c1-c1ccc(Cl)cc1)c(=O)n(C)c(=O)n2C -17.6%
CCCN(C(=O)Cn1cnc2onc(-c3ccc(F)cc3)c2c1=O)c1cccc(Cl)c1 -24.7%
CCC(Sc1nc2ccccc2c(=O)n1CCc1ccc(OC)c(OC)c1)C(=O)N(CC)CC (centres undefined) -0.415%
CCOc1ccc(CCNS(=O)(=O)c2cc(Br)cc3c2N(C(C)=O)CC3)cc1OCC -1.86%
Cc1cc(C)n(-c2nc3ccccc3nc2Nc2cccc(C)c2C)n1 -16.5%
CCC(=O)N(CCC(c1ccccc1)c1ccc2c(c1)OCO2)Cc1ccc(OC(C)C)cc1 (centres undefined) -31.1%
CCOC(=O)c1c(NC(=O)c2ccc(S(=O)(=O)N(CC(C)C)CC(C)C)cc2)sc2c1CCN(C(=O)OCC)C2 -23.4%
COc1ccc(Cl)cc1NC(=O)c1sc2nc3n(c(=O)c2c1C)CCC3 -21.7%
COc1ccc(NC(=O)CSc2nnc(-c3nonc3NC(C)=O)n2-c2ccccc2)cc1 -3.7%
CCc1ccc(CN(Cc2cn[nH]c2-c2ccc(OC)cc2)C(=O)Nc2cc(Cl)ccc2OC)cc1 -9.69%
COC(=O)c1c(NC(=O)CCCOc2cccc(C)c2)sc2c1C(C(=O)OC)CC2 (centres undefined) -8.22%
CCN(CC)C(=O)Cn1c(=O)n(Cc2ccc(C(=O)NCCc3ccc(OC)c(OC)c3)cc2)c(=O)c2ccccc21 -2.91%
CCOC(=O)C1=C(C)N=C2SCCC(=O)N2C1c1ccc(OCc2ccccc2)cc1 (centres undefined) -21.9%
COc1ccc(S(=O)(=O)NCCc2csc(-c3ccc(F)cc3)n2)cc1F -12.8%
CCCCN(CCCNC(=O)c1cc(Nc2ccc(OC)c(OC)c2)nc2ccccc12)Cc1ccccc1 -7.98%
Cc1ccc(-n2ncc(C(=O)NCc3ccco3)c2C2CCN(C(=O)OC(C)(C)C)CC2)c(C)c1 -14.2%
CC(=O)c1ccc(N2C(=O)N(CC(=O)c3ccc(F)cc3)c3ccccc3S2(=O)=O)cc1 5.9%
Cc1ccc(-n2ncc3c(NC4CCCCCC4)ncnc32)cc1Cl -19.1%
COc1ccc(NC(=O)CSC2=Nc3ccccc3C3=NC(CCC(=O)NC4CCCCC4)C(=O)N23)cc1 (centres undefined) -10.9%
CCCS(=O)(=O)N1CC(=O)N(c2ccc(Cl)cc2C)C(C)(C(=O)NC2CCCC2)C1 (centres undefined) 7.92%
COc1cc2nc(NC(=O)c3ccc(S(=O)(=O)N4CCOCC4)cc3)sc2cc1OC -9.12%
O=C(CSCc1ccccc1Cl)N1CCN(c2ccc(Cl)cc2)CC1 -11.8%
COc1c(C)cccc1C(=O)Nc1cccc2ccc(C)nc12 -4.1%
CC(=O)c1cccc(NC(=O)C2CCN(S(=O)(=O)c3ccc4c(c3)oc(=O)n4C)CC2)c1 -15.4%
N[C@@H](CSCCCO)C(=O)O -11.8% [at 23.8 µM]
CCOC(=O)c1cccc(NC(=O)CCn2c(-c3ccc(F)cc3)cc(C(=O)OCC)c2C)c1 -11.9%
Cc1cccc(NC(=O)N2CC(=O)Nc3sc4c(c3C2c2ccccc2)CCCC4)c1C (centres undefined) -22%
Cc1ccc(C(=O)c2cn(CC(=O)Nc3ccc(C)cc3Cl)c3nc(C)ccc3c2=O)cc1 -11.8%
Cc1ccccc1C1CC(=O)Nc2ccc3ccccc3c21 (centres undefined) -2.12%
CCOC(=O)C1CCN(C(=O)c2ccc(-n3ccc4ccccc43)s2)CC1 -21.9%
COc1ccc(Cn2ccn(Cc3cccc(OC)c3)c(=O)c2=O)cc1 -5.5%
Cc1cc(C)cc(-n2c(-c3ccccc3)c(C)n3c4c(=O)n(C)c(=O)n(C)c4nc23)c1 -10.5%
Cc1cn2c(=O)cc(COC(=O)c3ccc(NC(=O)COc4ccccc4F)cc3)nc2s1 -7.01%
CCOc1ccccc1OCCCn1c(-c2ccc(Cl)cc2)nc2ccccc2c1=O -11.4%
Cc1ccc(Cl)cc1N1CCN(C(=O)c2ccc3c(c2)N(Cc2ccc(F)cc2)CCS3)CC1 -15.4%
CCOc1cc(CNC(=O)c2ccc3c(c2)NC(=O)C2CCCCN32)cc(OCC)c1OCC (centres undefined) -23.5%
CCOC(=O)c1[nH]c(C)c(CCC(=O)Nc2cc(C)ccc2OC)c1C -10.7%
COc1cc(C(=O)NCC(c2cccs2)S(=O)(=O)c2cccs2)cc(OC)c1OC (centres undefined) -9.17%
CCc1ccccc1NC(=O)c1cnc(N2CCCCC2)c2ccccc12 -6.3%
Cc1cc(=O)n(CC(=O)N2CCN(c3ccccc3F)CC2)c2c1c(C)nn2C -17.4%
CCOc1ccc(CCNC(=O)Cn2nc(CC)n3c(cc4ccccc43)c2=O)cc1 -10.6%
O=C(CCn1c(=O)c2cccn2c2cccnc21)NCc1ccc(F)cc1 -16.3%
Fc1ccc(-c2noc3ncnc(NCc4ccc(Cl)cc4)c23)cc1 3.59%
CN(Cc1ccccc1)C(=O)c1ccc2c(c1)N(Cc1ccccc1Cl)C(=O)c1ccccc1S2 -5.42%
Cc1ccccc1CN1CCC(CNC(=O)c2c(C)oc3ncnc(N4CCCCC4)c23)CC1 -5.88%
CCN1C(=O)c2ccccc2S(=O)c2ccc(C(=O)N3CCN(c4cc(Cl)ccc4C)CC3)cc21 (centres undefined) -7.49%
CCC(Sc1nc(-c2ccccc2F)nc2c1Cc1c(CO)cnc(C)c1O2)C(=O)Nc1cc(C)ccc1C (centres undefined) -11.6%
CCOc1ccc(CCNC(=O)C2=C(C)C(=O)OC23CCCCC3)cc1 -14.5%
COc1ccc(-c2cc(C(C)=O)c(C)n2CCC(=O)Nc2cc(Cl)ccc2C)cc1 12.3%
COc1ccc(C(=O)NC2(C(F)(F)F)C(=O)Nc3c2c(=O)[nH]c(=O)n3CCc2ccc(OC)c(OC)c2)cc1 (centres undefined) -19.7%
CCOC(=O)C1CCN(S(=O)(=O)c2ccc3c(c2)N(C)C(=O)CC(=O)N3C)CC1 -9.24%
Nc1ccc([N+](=O)[O-])c(C(F)(F)F)c1 -8.96%
COc1cc(C2CC(=O)Oc3c2c(=O)n(C)c2ccccc32)ccc1O (centres undefined) -18.4%
Cc1cc(C)c2oc(-c3cccc(NC(=O)COc4ccc([N+](=O)[O-])cc4)c3)nc2c1 -28%
Cc1ccc(NC(=O)Cn2c(=O)n(CC3CCCO3)c(=O)c3ccccc32)cc1 (centres undefined) 12.7%
Cc1ccc(Cl)cc1N1CCN(C(=O)c2ccc(CS(=O)(=O)c3ccccc3C)o2)CC1 -14.8%
O=C(COc1ccccc1)Nc1ccc2nc(SCCOc3ccccc3)sc2c1 -18.7%
CCOC(=O)c1c(C)[nH]c(C)c1S(=O)(=O)N(C)CC(=O)Nc1ccc(C)cc1C -9.46%
CCCn1cnc2c1c(=O)n(CCCCC(C)=O)c(=O)n2C -14.8%
Cc1nnc(N2CCCC(C(=O)Nc3cc(F)ccc3F)C2)c2nn(-c3ccccc3)c(C)c12 (centres undefined) -7.44%
CCCN1CCN(c2ncnc3sc(C(=O)Nc4ccc(OC(F)(F)F)cc4)c(C)c23)CC1 -21.9%
CC1CCN(c2nc3ccccc3nc2SCC(=O)Nc2ccccc2C(C)C)CC1 -18.8%
O=C(NC1(C(F)(F)F)N=C(c2ccccc2)N(Cc2ccccc2)C1=O)c1ccc(F)cc1 (centres undefined) -7.38%
Cc1cc(-c2ccc(C)c(S(=O)(=O)Nc3ccc(C)c(N(C)C)c3)c2)on1 -12.7%
CCOc1ccc(CCNC(=O)c2cc3n(n2)CCCN(Cc2ccc(C)cc2)C3=O)cc1OCC 0.193%
CCOc1ccc(C(=O)c2cn(CC(=O)Nc3ccc(C)c(Cl)c3)c3ccc(OCC)cc3c2=O)cc1 -13.8%
COc1cc(NC(=O)COCc2cc(-c3ccc4c(c3)OCO4)on2)c(OC)cc1Cl -15%
O=C(CS(=O)(=O)c1cccc2nsnc12)N1CCN(c2ccc(F)cc2)CC1 -12.2%
CC(=O)c1ccc(NC(=O)Cn2c(=O)nc(-c3ccccc3)c3ccccc32)cc1 -8.3%
CCCCN(CC)CCCNC(=O)c1ccc2c(c1)N(Cc1ccc(C)cc1)C(=O)c1ccccc1S2 -6.27%
CCCCC(=O)OCc1cc(=O)n2nc(C3CC3)sc2n1 2.04%
Cn1cnc(S(=O)(=O)N2CCC(C(=O)Nc3ccc(OC(F)(F)F)cc3)CC2)c1 -17.6%
CC1CCN(S(=O)(=O)c2ccc3c(c2)N(CC(=O)N(C)Cc2ccccc2)C(=O)CO3)CC1 -12.4%
CCN(CC)c1cc(NC2CCCCC2)c2c3c(onc13)-c1ccccc1C2=O -8.22%
O=C(CCCc1nc(-c2ccc(Cl)cc2)no1)NCc1ccco1 -9.46%
COc1cc(C2c3c(-c4ccccc4O)n[nH]c3C(=O)N2Cc2ccncc2)cc(OC)c1OC (centres undefined) -26.5%
CCCCN1C(C(=O)c2ccccc2)=C(OC(=O)CC)c2ccccc2S1(=O)=O -11.7%
O=c1c2sc3ccccc3c2n(Cc2cccc(Cl)c2)c(=O)n1Cc1ccc(F)cc1 -12.8%
Cc1ccccc1CN1C(=O)C(O)(c2c[nH]c3ccccc23)c2cc(Cl)ccc21 (centres undefined) -14.6%
COc1cccc(CNC(=O)C2CCCN(c3nn4cc(-c5ccc(C)cc5)nc4s3)C2)c1 (centres undefined) -10.9%
Cc1cc(C)c(NC(=O)Cn2nnc3sc4c(c3c2=O)CCC(C(C)(C)C)C4)c(C)c1 (centres undefined) -1.21%
O=C(c1ccc2c(c1)N(Cc1ccccc1)C(=O)c1ccccc1S2(=O)=O)N1CCC(Cc2ccccc2)CC1 -6.81%
O=C(NCc1ccc(Cl)cc1)c1cc2cccc3c2n1CCS3 -4.7%
CC1CCCN(C(=O)c2ccc(CSc3nc4ccncc4n3Cc3ccccc3)cc2)C1 (centres undefined) -5.4%
CCc1cc(C(=O)N2CCN(c3ccccc3)CC2)no1 -17.6%
COc1ccc(CNC(=O)C2CCN(C(=O)N3CCOc4ccc(C)cc43)CC2)cc1 1.09%
COC(=O)c1sccc1S(=O)(=O)N(CC(=O)NCc1ccc(F)cc1)c1ccccc1 -8.37%
Cc1cccc(NC(=O)Cn2c(=O)n(Cc3nc(-c4ccccc4)no3)c(=O)c3ccccc32)c1 -16.7%
